Results: the RNAGym collection of RNA variant scans (doi:10.1093/nar/gkz1192)
Read counts are not given, so values of variants with three or more changes are uncertain.

B1: CPEB3 Ribozyme (parent)
chain: UAACAGGGGGCCACAGCAGAAGCGUUCACGUCGCAGCCCCUGUCAGAUUCUGGUGAAUCUGCGAAUUCUGCUGUAUAUCUC

Variants of: B1
Assay: self-cleavage, relative activity (ratio to wild type); higher = more cleavage; in vitro, sequencing
Method in brief: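 Relative activity was defined as the cleaved/total read fraction for a variant divided by the same fraction for the unmutated ribozyme. CPEB3 self-cleaving ribozyme libraries were made by rounds of error-prone PCR, barcoded, and transcribed in vitro with T7 RNA polymerase for 5 hours at 37°C, and cleavage ran through transcription plus a 15 min DNase I step before EDTA. Illumina sequencing of template-switched reverse transcripts gave the reads, and DNA sequencing mapped the barcodes. Averages come from three batches, using variants with at least 5 reads.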

| Variant | self-cleavage |
| --- | --- |
| A21G U43G A57G | 0.4 |
| A21U U31C A35G U43C C50U | 0.28 |
| A21G U51A U69C | 0.16 |
| A21G U41C A45U U49C U60C | 0.07 |
| A21U A35G A47G U60C | 0.39 |
| A21G U43A U67C C68G | 0.12 |
| A21U U41A U69A | 0.1 |
| A21G U43C U67C U74C U78C | 0.06 |
| A21U G70A U76C | 0.1 |
| A21U A35G A56G U78C | 1.18 |
| A21G U60C A75G | 0.12 |
| A21G U76C A77G | 0.64 |
| A21U U41C U48C A57G U72C U76C | 0.2 |
| A21G U48C A57U U80A | 0.11 |
| A21U A45G U67C U69A | 0.05 |
| A21G U43A U72G | 0.55 |
| A21G U54C A57U | 0.32 |
| A21U A47G G53A U60A U67A | 0.08 |
| A21U U51C U72C | 0.42 |
| A21G U54A U58C A64G | 0.15 |
| A21U U41A A45G A56U A64U U66C | 0.09 |
| A21G U58C U60C | 0.21 |
| A21G U51A C59A | 0.13 |
| A21G U49C U76A | 0.27 |

| Variant | self-cleavage |
| --- | --- |
| A21U U25C A45G U49C U74C | 0.05 |
| A21G U43C U54C U58C | 0.15 |
| A21G U74A U80C | 0.88 |
| A21U U43G A65G U67C U78A U80C | 0.08 |
| A21G U41G U48C U58C | 0.31 |
| A21U U26C A56G U78C | 0.16 |
| A21G U48C U58C U60A | 0.15 |
| A21G U41C A47G | 0.38 |
| A21U U49C C50G C62U U78C | 0.05 |
| A21G U66C U72A U80C | 1.19 |
| A21G U66C U67C | 0.18 |
| A21G U43A A57G U67A | 0.29 |
| A21U U31C U74C U78C | 0.44 |
| A21G U49C U67A U80C | 0.4 |
| A21U U25C A57G U67C U80C | 0.13 |
| A21U G53C U72C | 0.13 |
| A21U U41A A75G | 0.04 |
| A21U A64U A65G U80A | 0.03 |
| A21U A35G U60A | 0.64 |
| A21G U41A U43C | 0.09 |
| A21U U25G C27U A47G U49A A75G | 0.04 |
| A21G U67C C71A U74C | 0.08 |
| A21G U60A U67C | 0.22 |
| A21G U51A U58C U60C A65C | 0.15 |

| Variant | self-cleavage |
| --- | --- |
| A21U U51C G53U A57U U67A U69C | 0.07 |
| A21U U25A U26C | 0.45 |
| A21U C34U U72A | 0.08 |
| A21G U48C U76C U78C | 0.25 |
| A21G U41C A77G | 0.49 |
| A21G U72G U74C | 0.45 |
| A21U A28G U31A U41C U49C U60C G73A | 0.07 |
| A21U U49A A57G | 0.07 |
| A21U U25C U26C | 0.1 |
| A21U G24A C27A G42A | 0.11 |
| A21G U67C G73A | 0.15 |
| A21U U26C U51A | 0.25 |
| A21U G30U U41C | 0.23 |
| A21G U41A A47G U51A U72A U80A | 0.11 |
| A21G U43C U69C | 0.18 |
| A21U C23G A35G U78C | 0.27 |
| A21U U26C U58C A64U | 0.12 |
| A21U A35G A64U | 0.35 |
| A21U U74C U78A | 0.62 |
| A21G U31C U78A | 0.16 |
| A21U A45U U49A | 0.11 |
| G22A A28G U51C A57U | 0.18 |
| A21G U41C A45G G46A U49C | 0.38 |
| A21U U25C U66C | 0.15 |

| Variant | self-cleavage |
| --- | --- |
| A21G U43A A56U | 0.29 |
| A21U U26A G70A U74C | 0.07 |
| A21G U54A U74G | 0.82 |
| A21G U43C U66C C71A | 0.2 |
| A21G U41C U67C U80A | 0.15 |
| A21G U41A G53U A56G C59G U74A | 0.03 |
| A21G U69A A75G | 0.09 |
| A21U C27A A47U U49C | 0.13 |
| A21U U41A U58A | 0.15 |
| A21G U41C U80C | 0.71 |
| A21G U69C A75G | 0.3 |
| A21G U48C U72C | 0.35 |
| A21G U48C U72A | 0.06 |
| A21U U25A A45U G63A | 0.11 |
| A21G U54A U58C U74G | 0.19 |
| A21G U43C A56U U60C | 0.09 |
| A21U U41A A64G A65G | 0.14 |
| A21U A56G U66C U80C | 0.14 |
| A21G U43C U58C | 0.26 |
| A21G U54C C59U U60C | 0.14 |
| A21G U54G A56G U72G | 0.23 |
| A21U U31C U74C | 0.51 |
| A21U U49C U51C U74A | 0.18 |
| A21U U26A A47U U72A | 0.09 |

| Variant | self-cleavage |
| --- | --- |
| A21G U41C A56G G73A | 0.83 |
| A21U U41C A75U | 0.26 |
| A21U U41C A75G | 0.12 |
| A21G U51C A57G A65G | 0.18 |
| A21U U26C C39U U54C C62U A75U | 0.12 |
| A21U U41C U66C U72C U78C | 0.17 |
| A21G U43C A45U | 0.26 |
| A21G U51G G55U | 0.42 |
| A21U U26C G36A C50U | 0.18 |
| A21G U41C A56G U80A | 0.57 |
| A21G U76C C81U | 0.88 |
| A21U A35U A47G | 0.24 |
| A21G U49C U69C U76A | 0.09 |
| A21U U49A G55A A75G | 0.18 |
| A21U U25C G46A U48C U49C G70A | 0.05 |
| A21U A65G U80A | 0.36 |
| A21G U58C U67C | 0.28 |
| A21U U26A A28G U43C A64G | 0.14 |
| A21G U49C U54C G55A A64G U78C | 0.09 |
| A21U C38A A45G U69C | 0.1 |
| A21U U60C U66G | 0.13 |
| A21U C37U U43C | 0.37 |
| A21U U25G U69C U80A | 0.04 |
| A21U C27U A56U A57U U78A | 0.17 |

| Variant | self-cleavage |
| --- | --- |
| A21G U41C A45U U49C U72A | 0.07 |
| A21U U49C U78C | 0.3 |
| A21G U31C U69C | 0.32 |
| A21U U26C U31A U43C | 0.07 |
| G22A A28C U51G | 0.14 |
| A21G U60A U69A U78C | 0.08 |
| A21U A28C C68G U72C | 0.05 |
| A21G U60C U72A | 0.22 |
| A21U U25A U60A U80C | 0.57 |
| A21G U51C U72G | 0.26 |
| A21U U54A A64U | 0.13 |
| A21G U54A U69G | 0.37 |
| A21G U41C A64U U72A | 0.1 |
| A21U U26G C50U U76C A77G | 0.18 |
| A21U A28G G53A U58A | 0.1 |
| A21U U48C A64G | 0.11 |
| A21U U31A U67A U76C | 0.04 |
| A21G U31C U80A | 0.25 |
| A21G U43C U51A | 0.41 |
| A21G U43C A56G U60C | 0.16 |
| A21U U51A C62U U72C | 0.17 |
| A21U C23U U31C U51A C62U | 0.11 |
| A21U A28U A47G U76C | 0.23 |
| A21U A28U A56G A64G U80A | 0.08 |

| Variant | self-cleavage |
| --- | --- |
| A21G U43C U69C U72C | 0.17 |
| A21G U60C U74C | 0.29 |
| A21G U43A C50A U51G U54C U66C | 0.44 |
| A21U C29A U43C | 0.12 |
| A21G U43A U69A | 0.2 |
| A21U U41C U58A | 0.11 |
| A21U A56U U78C | 0.23 |
| A21U A28G U49A A64G U66A U67G | 0.03 |
| A21U U54C U60A C62G U67C A75G | 0.04 |
| A21G U51C A57G U58C | 0.22 |
| A21U U74C A77G | 0.83 |
| A21G U51C G63U | 0.62 |
| A21U U25C A35G C71U | 0.07 |
| A21U G46U U69C | 0.23 |
| A21U U31A A56U A57G | 0.09 |
| A21G U48C U49A A64U U76C U78C | 0.09 |
| A21G U49C U54C | 0.13 |
| A21U G33A A56G | 0.13 |
| A21U U26A U41C C71G | 0.08 |
| A21U G36A C37U U51C A56U | 0.09 |
| A21U U26C C81U | 0.13 |
| A21G U58A A64G U72A | 0.33 |
| A21G U41G U49A | 0.27 |
